Source: publication PMC10894229, “Novel antimicrobial peptides against Cutibacterium acnes designed by deep learning” (Scientific Reports, 2024)
Ends that are not written are not given here.

What was measured:
[1] = tested on: human keratinocytes (HaCaT); assay: HaCaT cell viability, CCK-8 assay; assay type: cell-based; details: for Cytotoxic EC90: 24 h
Protocol: HaCaT (IM-H225) cells from Xiamen Immocell Biotechnology Co., Ltd were cultured in DMEM high glucose medium (4.5 g/L, Gibco, USA), supplemented with 10% fetal bovine serum (Gibco, USA), 100 U/mL of penicillin and 100 μg/mL of streptomycin in a 5% CO2 fully humidified environment at 37 °C.
Cell Counting Kit-8 (CCK-8; Biosharp, China) was used to assess the rate of cellular proliferation and quantify cell viability. In brief, HaCaT cells were seeded in 96-well plates with 100 μL of medium at a density of 1 × 10^4 cells per well. After incubation of cells overnight, peptides were added into the medium for another 24 h incubation. Then, 10 μL of CCK8 solution was applied to each well and incubated for 1 h at 37 °C. Finally, the absorbance values at 450 nm were determined using a microplate reader (SYNERGY-H1, BioTek, USA). Two columns of the plate were kept for negative control (medium only) and growth control (medium with HaCaT cell). All experiments were conducted in triplicate.

S. aureus (ATCC 25913) = assay type: cell-based; details: ATCC 25913, 24 h
Protocol: (§1) Logarithmic phase growth bacteria were used for antimicrobial testing.
(§2) All experiments were conducted in triplicate.

E. coli (ATCC 25922) = assay type: cell-based; details: ATCC 25922, 24 h
Protocol: as §1, §2

[2] = tested on: rabbit red blood cells (rRBCs); assay: Hemolytic activity assay; assay type: cell-based; details: for Hemolysis EC90: 2 h
Protocol: The hemolytic activity of peptides was assayed on rabbit red blood cells (rRBCs)[43]. Briefly, 2% rRBCs (150 μL) were incubated in the presence of various peptide concentrations (50 μL) at 37 °C for 2 h. After centrifugation, the supernatants were collected for measuring absorbance at 545 nm. PBS and 0.01% Triton X-100 were used as the negative (no hemolysis) and positive (100% hemolysis) control, respectively. Triplicate tests were performed.

C. albicans (ATCC 14053) = assay type: cell-based; details: ATCC 14053, 48 h
Protocol: Strains of C. albicans (ATCC 14053) were grown in Nodule Bacteria Medium YM broth (Beijing Solarbio Science and Technology, LA6970) at 28 °C at 180 rpm under aerobic conditions.
as §1
(§3) To determine the MIC values, the broth microdilution method was used. […] Briefly, peptide samples were prepared as a stock solution in water and then diluted. 180 μL of the bacterial suspension (10^7 CFU/mL) and 20 μL of the tested sample were added together into 96-Well Deep Well Plates and incubated 24 h for E. coli and S. aureus or 48 h for C. acnes and C. albicans. For each test, two columns of the plate were kept for sterility control (broth only) and growth control (broth with bacterial inoculums, no antibiotics). The optical density of cultures was measured at 630 nm by a microplate reader (SYNERGY-H1, BioTek, USA) to estimate bacterial growth. All experiments were conducted in triplicate. We used ciprofloxacin (CPFX) as the antibiotic control for antimicrobial testing.

C. acnes (BNCC 336649) = details: BNCC 336649, 48 h
Protocol: The strain of C. acnes (BNCC 336649) was cultured in Wilkins-Chalgren Anaerobe Broth (QingDao RiShui Bio-technologies, 11071) at 37 °C under an anaerobic atmosphere performed by a Labiophy HL-B automatic hypoxic workstation (Dalian, Liaoning Province, Labiophy HL-B), inflated with a gas mix of 15% carbon dioxide, 83% nitrogen, and 2% hydrogen.
as §1, §3

| Compound | Cytotoxic EC90 [1] [µg/mL] | MIC S. aureus (S. aureus (ATCC 25913)) [µg/mL] | MIC E. coli (E. coli (ATCC 25922)) [µg/mL] | Hemolysis EC90 [2] [µg/mL] | MIC C. albicans (C. albicans (ATCC 14053)) [µg/mL] | MIC C. acnes (C. acnes (BNCC 336649)) [µg/mL] | Cytotoxic Index ([1]; ratio of EC90 (HaCaT) to MIC of C. acnes) | Hemolysis Index ([2]; ratio of EC90 (rabbit red blood cells) to MIC of C. acnes) |
| --- | --- | --- | --- | --- | --- | --- | --- | --- |
| LSKWLKKLGKLLAG [AMP-33] | 80 | 50 | 25 | 80 | 12.5 | – | – | – |
| KKIFKRIVKIIKRLL [AMP-29] | 32 | 8 | 8 | 64 | 25 | – | – | – |
| KKWRKVLKLIKRLVG-NH2 [AMP-12] | 32 | 8 | 8 | 80 | 25 | – | – | – |
| GWAKRLATRLAKAIL-NH2 [AMP-27] | > 320 | > 100 | 100 | 160 | 50 | 25 | – | – |
| KRIVHRLLKKLHSLF [AMP-9] | 160 | > 100 | 25 | 240 | 25 | – | – | – |
| GIFKKITGKLFKWIK [AMP-5] | 80 | 100 | 12.5 | 240 | 12.5 | 8 | – | – |
| KILGKLLKWASKIW [AMP-31] | 32 | 8 | 8 | 80 | 25 | – | – | – |
| AKRIVKLIKNFFRKL-NH2 [AMP-25] | 80 | > 100 | 50 | 240 | 25 | – | – | – |
| CC(C)C[C@H](NC(=O)[C@H](Cc1c[nH]c2ccccc12)NC(=O)[C@@H](NC(=O)[C@H](CC(C)C)NC(=O)[C@@H]1CCCN1C(=O)[C@@H](N)Cc1ccccc1)[C@@H](C)O)C(=O)N[C@@H](CCCCN)C(=O)N[C@@H](Cc1c[nH]c2ccccc12)C(=O)N[C@@H](Cc1c[nH]c2ccccc12)C(=O)N[C@@H](CCCCN)C(=O)N[C@@H](Cc1c[nH]c2ccccc12)C(=O)N[C@@H](CCCCN)C(=O)N[C@@H](CCCCN)C(N)=O [FK13, reference compound] | – | – | – | – | – | – | 20 | 16 |
| HFLGVVAKLVSKLF [AMP-38] | 80 | 12.5 | 8 | 128 | 50 | 8 | – | – |
